# Measured values taken from the RNAGym collection of RNA variant scans (doi:10.1073/pnas.2313332121).
# Variants at the background level are over-represented here.
# B1: TPR 5TU (parent)
# chain: GGAUCUUCUCGAUCUAACAAAAAAGACAAAUCUGCCACAAAGCUUGAGAGCAUCUUCGGAUGCAGAGGCGGCAGCCUUCGGUGGCGCGAUAGCGCCAACGUUCUCAACUAUGACACGCAAAACGCGUGCUCCGUUGAAUGGAGUUUAUCAUG
# Variants of: B1
# Assay: polymerase ribozyme fitness, log enrichment relative to wild type (log ratio); higher = more active; in vitro selection for triplet polymerase activity
# Summary of the method: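 A single round of triplicate in vitro selection, including frozen incubation at −7 °C, was applied to PCR-built, transcribed mutant libraries of each subunit of a heterodimeric triplet polymerase ribozyme. Illumina sequencing of input and output libraries retained genotypes with ≥10 input reads and ≥1 read per output. Fitness is the base-2 logarithm of genotype enrichment divided by wild-type enrichment, from inverse-variance-weighted replicate averages.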
row,Variant,polymerase ribozyme fitness (log ratio)
1,GGAUCUUCUCGAUCUCAGAAAAAAGACAAAUCUGCCACAAAGCUUGAGAGCAGCUUCGGAUGCAGAGGCGGCAGCCUUCGGUGGCGCGAUUGCGCCAACAUUCUCAACUAUGACACGCAAAACGCGUGCUCCGUUGAAUGGAGUUUAUCAUG,≤ -4.2
2,GGAUCUUCUCGAUCUCACAAAAAAGACAAUUCUGCCACAAAGCUUGAGAGCAUCUUCGGAUGCAGAGGCGGCAGCCUUCGGUGGCGCGAUAGCGGCAACGUUCUCAACUAUGACACGCAAAACGCGUGCUCCGUUGAAUGGAGUUUGUAAUG,≤ -4.2
3,GGAUCUUCUCGAUCUCACAAAAAAGACAAAUCUGCCACAAAGCUUGAGAGCAUCUUCGGAUGCAGAGGUGGCAGCCUUCGAUGGCGCGAUAGAGCCAACGUUCUCAACUAUGACACGCAAAACGCGUGCUCCGUUGAAUGGAGUUUAUCAUG,≤ -4.2
4,GGAUCUUCUCGAUCUCACAAAAAAGAUAAAUCUGCCACAAAGCUUGAGAGCAUCAUCGGAUGCAGAGGCGGCAGCCUUCGGUGGCGCGAUAGCGCCAACGUUCUCAACUAUGCCAGGCAAAACGCGUGCUCCGUUGCUUGGAGUUUAUCAUG,≤ -4.2
5,GGAUCUUCUCGAUCUCACAAAAAAGACAAAUCUGCCACAAAGCUUGAGAGCAUCUUCGGAUGCAGAGGCGGCAGCCUUCGGUGGCGCGAUAGCGCCAACGUUCUCAACUUUGACACGCAAAACGCGUGCUCCGUUUAAUGGAGUUUAUCAUG,≤ -4.2
6,GGAUCUUCUCGAUCUCACAAAAAAGACAAAUCUGCCACACAGCAUGAGAACGUCUGCGGAUGCAGAGGCGGCAGCCUUCGGUGGCGCGAUAGCGCCAACGUUCUCAACUAUGACACGCAAAACGCGUGCUCCGUUGAAUGGAGUUUCUCAUG,≤ -4.2
7,GGAUCUUCUCGAUCUCACAAAAAAGACAAAUCUGCCACAAAGUUUGAGAACAUCUUCGGAUGCAGAGGCGGCAGCGUUCAGUGGCGCGAUAGAGCCAACGUUUUCAACUAUGACACGCAAAACGCGUGCUCCGUUGAAUGUAGUUUAUCAAG,≤ -4.2
8,GGAUCUUCUCGAUCUCACAAAAAAGACAAAUCUGCCACAAAGCUUGAGAGCAUCUUCGGAUGCAGAGGCGGCAGCCUUCGGUGGGGCCAUAGCGCCAACGUUCUCAACUAUGACACGCAAAACGCGUGCUCCGUUCAAUGGAGUUUAUCAUG,≤ -4.2
9,GGAUCUUCUCGAUCUCACAAAAAAGACAAAUCUGCCACAAAGAUUGAGAGCAUGAUCGGAUGCAGAGGCGGCAGCCUUCGGUGGCGAGAUAGCGCCAACGUUCUCAACUAUGACACGCAAAACACGUGCUCCGUUGAAUGGAGUUUAUCAUG,≤ -4.2
10,GGAUCUUCUCGAUCUCACAAAAAAGACAAAUCUGCUACAAAGCUUGAGAGCAUCUUCGCAUGCAGAGGCGGCAGCCUUCGGUGGCGCGAUAGCGCCAACGUUCUCAACUAUGACACGCAAAACGCGUGCUCCGUUGAAUGGAGUUUAUCAUG,-2.53
11,GGAUCUUCUCGAUCUCACAAAAAAGACAAAUCUGCCACAAAGCUUGAGAGCAUGUUCGGAUGCAGAGGCGGCAGCCGUCGGUGGUGCGAUAGCGCCAACGUUCUCAACUAUGACACGCAAAACGCGUGCUCCGUCGAAUGGAGUUUAUCAUG,≤ -4.2
12,GGAUCUUCUCGAUCUCACAAAAAAGACAAAUCUGCCACAAAGCUUGAGAGAGGCUUCGGAUGCAGAGGCGGCAGCCUUCGGUGGUGCGAUAGCGCCAACGUUCUCAACAAUGACACGCAAAACGCGUGCUCCGUUGAAUGGAGUUUAUCAUG,≤ -4.2
13,GGAUCUUCUCGAUCUCACAAAAAAGACAAAUCUGCCACAAAGCUUGAGAGCAUCUUCGGAUGCAGAGGCGGCAGCCUUCGGUGGCGCGAUAGCGCCAACGUUCUCAACUGUGACACGCAAAACGCGUGCUCCGUUGAAUGGAGUUUAUCAUG,-3.67
14,GGAUCUUCUCGAUCUCACAAAAAAGAAAAAUCUGCGACAAAGCUUGAGAGCAUCUUCGGAUGCAGAGGCGGCAGCCUUCGGUGGCGCGAUAGCGCCAAAGAUCUCAACUAUGACACGCAAAACGCCUGCUCCGUUGAAUGGAGUUUAUCAUG,≤ -4.2
15,GGAUCUUCUCGAUCUCACAAAAAAGACAAAUCUGCCAUAAAGCUUGAGAGCAUCUUCGGAUGCGGAGGCGGCAGCCUUCGGUGGCGCGAUAGCUCCAAUGUUCUCAUCUAUGACACGGAAAACGCGUGCUCCGUUGAAUGGAGUUUAUCAUG,≤ -4.2
16,GGAUCUUCUCGAUCUCACAAAAAAGACAAAUCUGCCACAAAGCUUGAGAGCAUUUUCGGAUGCAGAGGCGGCAGCCUUCGGUGGCGCGAUAACGCCAACGUUCUCGACUAUGACAGGCAAAACGCGUGCUCCGUUGAAAGGAGUUUAUCAUG,≤ -4.2
17,GGAUCUUCUCGAUCUCACAAAAAAGACAAUUCUGCCACAAAGCUUGAGAGCAUCUUCGGAUGCAGAGGCGGCAGCCUUCGGUGGCGCGAUAGCGACAACGUUCCUAACUAUGACACGCAAAACGAGUGCUCCGUUGAAUGGAGUUUAUCAUG,≤ -4.2
18,GGAUCUUCUCGAUCUCACAAAAAAGACAAAUCUGCAACAAAGCUUGAGAGCAUCUUCGGAUGCAGAGGCGGCAGCCUACGGUGGCGCGAUAGCACCAACGUUCUCAACUAUGACACGCAAAACGCGCGCUCCGCUGAAUGGAGUUUAUAAUG,≤ -4.2
19,GGAUCUUCUCGAUCUCACAAAAAAGACAAAUCUGCAACAAAGCUUCAGAGCAUCUUCGGAUGCAGAGCCGGCAGCCUUCGGUGGCGCGAUAGUGCCAACGUUCUCAACUAUUACCCGCAAAUCGCGUGCUCCGUUGAAUGGAUUUUAUCAUG,≤ -4.2
